The target of assay [1] is murine APP with a carboxy-terminal FLAG tag (mouse) (UniProt P12023). The assay is described as follows: co-IP; competition: CHO cells co-transfected with APP-FLAG and human Itgβ1; after 48 h control CM or APPs-α CM applied for 8-12 h; lysed, M2-agarose immunoprecipitation, Licor quantification.
Assay [2] deals with FLAG-tagged angiotensin converting enzyme (UniProt P12821). The assay is described as follows: co-IP; CHO cells transiently co-transfected, lysed after 48 h in 1% NP-40 STEN buffer (150 mM NaCl, 50 mM Tris, 2 mM EDTA); immunoprecipitated with M2 anti-FLAG agarose; western blot. On the technique in general: Immunoblotting shows a protein as a band on a membrane.
The target of assay [3] is endogenous rat Integrin β1 (rat (endogenous in E18 primary neurons and cortex)) (UniProt P49134). The assay is described as follows: co-IP; endogenous proteins; lysates of E18 rat primary neurons and rat cortex immunoprecipitated with anti-Itgβ1 (MAB 1997), western blotted for APP.
For assay [4], the target named is endogenous mouse APP (mouse (endogenous in brain)) (UniProt P12023). The assay is described as follows: co-IP; endogenous proteins; total mouse brain lysate immunoprecipitated with anti-APP (C9) for 30 minutes or overnight, western blotted for Itgβ1; anti-Tbr1 as control.
Assay [5] deals with FLAG-tagged murine Integrin β1 (mouse) (UniProt P09055). The assay is described as follows: co-IP; CHO cells transiently co-transfected, lysed after 48 h in 1% NP-40 STEN buffer (150 mM NaCl, 50 mM Tris, 2 mM EDTA); immunoprecipitated with M2 anti-FLAG agarose; western blot.

The chains behind the UniProt entries cited, without tags or fusion partners. Where a name states a change or a piece, a line headed by the entry shows the natural chain unless it says otherwise. Residues count along the entry.
UniProt P12023, residues 18-770: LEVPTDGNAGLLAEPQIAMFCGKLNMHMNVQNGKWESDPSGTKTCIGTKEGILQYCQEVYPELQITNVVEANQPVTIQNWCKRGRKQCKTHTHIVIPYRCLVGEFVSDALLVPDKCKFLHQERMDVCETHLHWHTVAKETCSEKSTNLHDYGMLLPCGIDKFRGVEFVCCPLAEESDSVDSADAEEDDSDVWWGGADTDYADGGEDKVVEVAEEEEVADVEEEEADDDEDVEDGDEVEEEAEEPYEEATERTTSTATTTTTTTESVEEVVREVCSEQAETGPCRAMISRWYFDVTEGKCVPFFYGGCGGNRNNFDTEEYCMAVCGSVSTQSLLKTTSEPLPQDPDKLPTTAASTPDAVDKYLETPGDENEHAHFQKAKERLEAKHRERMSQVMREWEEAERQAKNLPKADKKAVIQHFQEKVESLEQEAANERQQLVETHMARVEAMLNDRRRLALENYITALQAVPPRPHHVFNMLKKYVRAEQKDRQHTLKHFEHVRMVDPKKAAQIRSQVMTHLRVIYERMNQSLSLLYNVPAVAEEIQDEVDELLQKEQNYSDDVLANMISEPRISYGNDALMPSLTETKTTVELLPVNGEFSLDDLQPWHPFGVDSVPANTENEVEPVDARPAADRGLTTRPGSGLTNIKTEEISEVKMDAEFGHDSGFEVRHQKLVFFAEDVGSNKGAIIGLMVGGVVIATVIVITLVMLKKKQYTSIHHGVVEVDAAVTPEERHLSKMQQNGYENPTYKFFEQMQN
UniProt P12821, residues 30-1306: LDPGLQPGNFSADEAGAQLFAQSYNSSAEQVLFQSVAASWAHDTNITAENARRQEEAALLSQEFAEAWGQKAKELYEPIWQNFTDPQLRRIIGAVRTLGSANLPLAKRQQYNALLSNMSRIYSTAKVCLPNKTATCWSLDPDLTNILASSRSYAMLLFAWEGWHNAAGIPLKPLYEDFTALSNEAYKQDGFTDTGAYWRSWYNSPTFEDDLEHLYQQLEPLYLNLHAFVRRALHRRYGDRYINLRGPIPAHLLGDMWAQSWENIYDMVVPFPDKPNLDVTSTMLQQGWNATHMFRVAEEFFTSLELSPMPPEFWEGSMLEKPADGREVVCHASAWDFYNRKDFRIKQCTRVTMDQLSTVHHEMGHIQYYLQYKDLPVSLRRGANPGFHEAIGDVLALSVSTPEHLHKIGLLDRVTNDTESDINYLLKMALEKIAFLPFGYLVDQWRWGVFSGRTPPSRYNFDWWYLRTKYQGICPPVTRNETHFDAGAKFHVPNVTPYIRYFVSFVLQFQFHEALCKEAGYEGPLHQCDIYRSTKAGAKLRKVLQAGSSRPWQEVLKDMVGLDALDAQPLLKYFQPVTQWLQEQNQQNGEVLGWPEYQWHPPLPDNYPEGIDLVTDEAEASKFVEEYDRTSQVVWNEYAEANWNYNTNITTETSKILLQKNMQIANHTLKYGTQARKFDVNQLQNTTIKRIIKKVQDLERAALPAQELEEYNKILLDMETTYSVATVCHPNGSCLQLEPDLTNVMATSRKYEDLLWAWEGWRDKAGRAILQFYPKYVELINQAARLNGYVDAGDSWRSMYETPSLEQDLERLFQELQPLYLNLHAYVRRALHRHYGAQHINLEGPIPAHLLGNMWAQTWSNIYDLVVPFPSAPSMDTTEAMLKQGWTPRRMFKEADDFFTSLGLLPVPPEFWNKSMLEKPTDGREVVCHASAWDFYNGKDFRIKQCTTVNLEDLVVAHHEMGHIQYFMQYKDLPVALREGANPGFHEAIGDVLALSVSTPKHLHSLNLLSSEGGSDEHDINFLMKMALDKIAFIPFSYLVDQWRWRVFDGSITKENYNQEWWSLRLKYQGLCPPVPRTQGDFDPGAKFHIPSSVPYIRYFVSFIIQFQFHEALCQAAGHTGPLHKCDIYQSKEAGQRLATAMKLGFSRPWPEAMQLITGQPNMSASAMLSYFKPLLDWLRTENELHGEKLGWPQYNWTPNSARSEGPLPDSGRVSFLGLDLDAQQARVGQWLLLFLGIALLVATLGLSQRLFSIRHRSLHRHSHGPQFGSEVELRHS
UniProt P49134, residues 21-799: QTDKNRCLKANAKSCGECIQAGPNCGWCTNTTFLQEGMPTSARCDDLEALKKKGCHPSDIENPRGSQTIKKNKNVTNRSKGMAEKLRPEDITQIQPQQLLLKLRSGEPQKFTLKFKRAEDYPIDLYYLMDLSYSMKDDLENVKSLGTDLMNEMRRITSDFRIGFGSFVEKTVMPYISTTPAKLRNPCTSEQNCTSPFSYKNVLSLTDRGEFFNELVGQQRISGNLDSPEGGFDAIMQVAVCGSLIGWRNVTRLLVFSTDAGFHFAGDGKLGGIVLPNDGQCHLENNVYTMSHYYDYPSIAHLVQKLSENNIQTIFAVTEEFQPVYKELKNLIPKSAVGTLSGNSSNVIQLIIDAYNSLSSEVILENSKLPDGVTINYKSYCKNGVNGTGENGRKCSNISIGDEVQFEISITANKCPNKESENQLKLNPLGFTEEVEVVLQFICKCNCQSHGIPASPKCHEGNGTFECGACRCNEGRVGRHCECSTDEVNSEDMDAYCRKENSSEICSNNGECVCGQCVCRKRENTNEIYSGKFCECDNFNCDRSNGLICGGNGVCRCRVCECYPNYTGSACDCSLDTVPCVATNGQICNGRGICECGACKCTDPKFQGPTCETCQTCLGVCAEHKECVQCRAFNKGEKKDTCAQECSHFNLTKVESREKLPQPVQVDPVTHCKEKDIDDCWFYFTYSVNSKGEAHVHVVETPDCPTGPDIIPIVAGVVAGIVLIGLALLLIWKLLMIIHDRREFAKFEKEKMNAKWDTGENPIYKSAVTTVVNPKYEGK
UniProt P09055, residues 21-798: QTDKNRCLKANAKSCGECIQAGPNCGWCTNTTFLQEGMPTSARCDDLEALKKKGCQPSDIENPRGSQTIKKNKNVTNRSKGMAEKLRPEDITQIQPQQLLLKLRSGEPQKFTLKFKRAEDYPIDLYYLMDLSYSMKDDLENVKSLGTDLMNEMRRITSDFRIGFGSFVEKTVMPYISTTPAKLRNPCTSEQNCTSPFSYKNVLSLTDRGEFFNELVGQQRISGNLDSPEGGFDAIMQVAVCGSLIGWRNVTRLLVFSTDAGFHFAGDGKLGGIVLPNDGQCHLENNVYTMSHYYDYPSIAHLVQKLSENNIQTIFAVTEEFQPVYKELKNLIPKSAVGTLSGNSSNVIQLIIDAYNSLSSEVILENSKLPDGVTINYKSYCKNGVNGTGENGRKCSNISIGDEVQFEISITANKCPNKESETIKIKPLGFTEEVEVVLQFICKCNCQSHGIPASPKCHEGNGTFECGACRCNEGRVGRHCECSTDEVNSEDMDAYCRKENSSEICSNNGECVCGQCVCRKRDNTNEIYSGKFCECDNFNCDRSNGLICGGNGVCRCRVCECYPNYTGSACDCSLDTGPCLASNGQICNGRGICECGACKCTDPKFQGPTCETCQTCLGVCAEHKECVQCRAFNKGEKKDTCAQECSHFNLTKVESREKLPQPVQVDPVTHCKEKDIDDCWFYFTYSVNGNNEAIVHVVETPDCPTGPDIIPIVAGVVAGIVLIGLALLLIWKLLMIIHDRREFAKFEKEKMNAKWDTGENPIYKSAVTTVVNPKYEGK
UniProt P05556: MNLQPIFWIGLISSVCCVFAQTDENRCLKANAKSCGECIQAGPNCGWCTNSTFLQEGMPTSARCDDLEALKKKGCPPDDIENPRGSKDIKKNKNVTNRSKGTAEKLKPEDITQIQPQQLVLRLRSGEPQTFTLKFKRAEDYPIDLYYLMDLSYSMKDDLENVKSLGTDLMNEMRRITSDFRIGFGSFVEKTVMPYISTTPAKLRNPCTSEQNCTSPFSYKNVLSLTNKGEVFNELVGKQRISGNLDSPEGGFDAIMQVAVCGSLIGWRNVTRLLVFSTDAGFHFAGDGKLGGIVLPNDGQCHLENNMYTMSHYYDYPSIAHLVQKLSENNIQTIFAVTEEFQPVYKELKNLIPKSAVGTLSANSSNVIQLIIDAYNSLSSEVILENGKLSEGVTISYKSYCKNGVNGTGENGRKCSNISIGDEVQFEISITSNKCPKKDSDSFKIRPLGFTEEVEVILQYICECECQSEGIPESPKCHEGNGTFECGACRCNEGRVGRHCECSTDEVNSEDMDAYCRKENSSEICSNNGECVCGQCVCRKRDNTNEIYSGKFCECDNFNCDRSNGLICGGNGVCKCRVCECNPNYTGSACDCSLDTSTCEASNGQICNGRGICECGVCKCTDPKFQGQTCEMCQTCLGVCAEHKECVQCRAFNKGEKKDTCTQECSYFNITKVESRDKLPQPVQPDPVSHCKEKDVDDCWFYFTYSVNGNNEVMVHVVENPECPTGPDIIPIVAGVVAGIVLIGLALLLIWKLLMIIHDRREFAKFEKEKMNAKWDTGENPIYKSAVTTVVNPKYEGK
UniProt P08592, residues 18-770: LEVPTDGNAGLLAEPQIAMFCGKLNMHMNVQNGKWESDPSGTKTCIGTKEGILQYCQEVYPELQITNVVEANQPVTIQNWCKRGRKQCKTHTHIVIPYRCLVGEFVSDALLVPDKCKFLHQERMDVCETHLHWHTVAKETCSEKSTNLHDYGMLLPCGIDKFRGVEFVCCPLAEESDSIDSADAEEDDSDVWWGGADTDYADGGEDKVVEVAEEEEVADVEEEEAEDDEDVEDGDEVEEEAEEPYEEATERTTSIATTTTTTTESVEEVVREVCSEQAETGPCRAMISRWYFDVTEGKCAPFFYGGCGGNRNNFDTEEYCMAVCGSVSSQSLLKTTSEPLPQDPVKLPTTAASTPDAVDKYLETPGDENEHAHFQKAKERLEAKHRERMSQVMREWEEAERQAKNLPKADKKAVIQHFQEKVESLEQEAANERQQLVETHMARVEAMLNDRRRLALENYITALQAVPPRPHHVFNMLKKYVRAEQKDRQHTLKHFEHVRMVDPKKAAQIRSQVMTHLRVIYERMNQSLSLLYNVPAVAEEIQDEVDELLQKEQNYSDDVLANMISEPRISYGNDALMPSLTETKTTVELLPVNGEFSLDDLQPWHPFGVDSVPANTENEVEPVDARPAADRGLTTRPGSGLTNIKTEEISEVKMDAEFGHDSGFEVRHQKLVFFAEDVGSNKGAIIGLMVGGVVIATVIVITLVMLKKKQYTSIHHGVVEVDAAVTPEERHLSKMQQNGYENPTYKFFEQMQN
UniProt Q06481, residues 32-763: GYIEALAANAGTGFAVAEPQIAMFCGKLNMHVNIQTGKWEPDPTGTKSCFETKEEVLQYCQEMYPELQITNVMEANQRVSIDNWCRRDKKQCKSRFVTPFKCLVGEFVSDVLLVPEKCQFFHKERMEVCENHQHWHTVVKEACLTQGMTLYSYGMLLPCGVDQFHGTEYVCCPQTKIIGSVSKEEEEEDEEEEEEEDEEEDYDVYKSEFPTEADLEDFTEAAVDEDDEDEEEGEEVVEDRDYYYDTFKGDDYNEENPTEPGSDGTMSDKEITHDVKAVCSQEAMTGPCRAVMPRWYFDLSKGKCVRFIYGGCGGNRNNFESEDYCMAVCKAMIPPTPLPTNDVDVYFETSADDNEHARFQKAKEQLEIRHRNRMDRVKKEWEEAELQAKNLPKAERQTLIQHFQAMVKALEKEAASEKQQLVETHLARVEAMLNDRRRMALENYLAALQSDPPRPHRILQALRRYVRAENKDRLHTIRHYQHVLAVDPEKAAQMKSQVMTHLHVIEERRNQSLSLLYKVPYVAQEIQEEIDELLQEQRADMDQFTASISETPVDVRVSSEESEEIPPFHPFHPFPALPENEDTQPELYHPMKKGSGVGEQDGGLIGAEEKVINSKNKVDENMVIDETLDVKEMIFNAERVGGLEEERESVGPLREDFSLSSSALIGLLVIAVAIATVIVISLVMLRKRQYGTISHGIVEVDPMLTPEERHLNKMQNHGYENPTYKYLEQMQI

These are yes or no findings as the source states them, for the method shown. Binding seen in cells or lysates may run through a third protein. Some results given as binding are weak or reduced against the parent protein; the word gives no strength.

As for “human Integrin β1 (from UniProt P05556 21-798) (receptor)”, the binding result in assay [1] is listed as “binds”.
Regarding “human APP, 695 amino acid splice variant (from UniProt P05067-4 18-695)”, the binding entry in assay [2] was “no binding”.
On to “endogenous rat APP (from UniProt P08592 18-770)”, for which the binding entry in assay [3] is on record as “binds”.
Take “endogenous mouse Integrin β1 (from UniProt P09055 21-798) (receptor)”: in assay [4], the binding entry was “binds”.
For the substance APLP2 (from UniProt Q06481 32-763), the binding result in assay [5] is listed as “binds”.

Values taken from PMC2442059.
